The whole screen tested about 320,000 compounds, of which about 200 (0.062%) were called active. Inconclusive means that the source gave no clear call. Such entries were picked first, then a sample of the others. The call rests on the fitted dose curve; in most records, active means well fitted activation curve with a large enough effect; inconclusive means small, poorly fitted or top-dose-only effect; inactive means no such curve, though single readings can be large or run the other way. No potency is given beside an inconclusive call; the fits are too rough.
experiment: qHTS assay for re-activators of p53 using a Luc reporter; conditions: H1299 p53-A138V BP100-luciferase reporter, luminescence, 24 h; series mostly up to 92.2 µM; activity change, positive = activation: at the top concentration; further: nearly all actives have a fitted effect of over 45% in size; on activity change, positive = activation: % of control where 0% means no effect
Method in brief: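 p53-null H1299 cells stably carrying temperature-sensitive p53-A138V and a BP100-luciferase reporter were pinned with compounds (4-point, 1:5 series) and held 24 hrs at 37 deg C. Luminescence was read 10 min after detection reagent.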
Potency means the concentration at half of the fitted maximal effect; tags describe the fitted curve by direction and shape.

Row | SMILES | Potency | activity change, positive = activation
1 | COCCC(=O)N1CCc2ccc(NC(=O)c3ccc(C(F)(F)F)cc3)cc2C1 | inconclusive [activator, single point] | 
2 | CN(c1ccccc1)c1nc2ccsc2c(=O)s1 | inconclusive [activator, full curve, poor fit] | 
3 | COc1ccc(S(=O)(=O)N2CCCCC2)cc1NC(=O)c1ccc(C)cc1 | inconclusive [activator, single point] | 
4 | COC(=O)c1ccc2nc(C(F)(F)F)[nH]c2c1 | inconclusive [activator, single point] | 
5 | COC(=O)c1sccc1NC(=O)c1ccc(C)s1 |  | inactive: 11.7%
6 | Oc1ccc(COCc2ccccc2)c2cccnc12 | inconclusive [activator, full curve] | 
7 | Cc1ccc(SCC(=O)Nc2ccc3c(c2)OCCO3)cc1 | inconclusive [activator, partial curve, poor fit] | 
8 | Cc1ccc(OCC(=O)N2CCCCC2)c(Br)c1 | inconclusive [activator, full curve] | 
9 | Cc1ccc(OCCOc2ccc(Cl)cc2Cl)c([N+](=O)[O-])n1 | inconclusive [activator, partial curve, poor fit] | 
10 | O=C1C=C(c2ccc(Oc3ccccc3)cc2)C[C@@H](c2ccc(Cl)cc2)C1 | inconclusive [activator, single point] | 
11 | Cc1ccccc1-c1nc(C#N)c(N2CCC(C)CC2)o1 | inconclusive [activator, partial curve, poor fit] | 
12 | Cc1ccsc1C(=O)OCC(=O)c1ccc(OC(F)F)cc1 | inconclusive [activator, partial curve, poor fit] | 
13 | O=C(c1ccco1)N1CCN(C(=O)N2CCOCC2)CC1 |  | inactive: -1.25%
14 | O=C(Nc1ccc(Cl)cn1)c1cccc(OCc2ccccc2)c1 | inconclusive [activator, partial curve] | 
15 | CCOC(=O)c1[nH]cnc1C(=O)Nc1ccc([N+](=O)[O-])cc1 |  | inactive: 1.02%
16 | C/C(=N\NC(=O)c1ccc2c(c1)OCO2)c1ccc(NC(=O)CCCC(=O)O)cc1 | inconclusive [activator, partial curve, poor fit] | 
17 | COc1ccc(NC(=O)/C=C/c2cccc(F)c2)cn1 | inconclusive [activator, partial curve, poor fit] | 
18 | CCOc1nc(NC(=O)NC(=O)c2ccccc2)nc(-c2ccccc2)n1 | inconclusive [activator, partial curve] | 
19 | Oc1ccc(-c2nc3ccccn3c2NCc2ccco2)cc1 | inconclusive [activator, partial curve, poor fit] | 
20 | COc1ccc(-n2c(SCC(N)=O)nc3nc4c(cc3c2=O)COC(C)(C)C4)cc1 |  | inactive: -6.94%
21 | COc1ccc(-c2nc3ccccc3c(=O)n2NC(=S)N(C)C)cc1 |  | inactive: 7.97%
22 | CCn1c2ccc(C)cc2c2nnc(NN)nc21 |  | inactive: -2.19%

Row | SMILES | Potency | activity change, positive = activation
23 | COc1ccc(CC(=O)Nc2cccc(-c3csc(C)n3)c2)cc1 | inconclusive [activator, single point] | 
24 | COCCNC(=O)CCc1nnc2ccc(N3CCC(C)CC3)nn12 |  | inactive: -3.89%
25 | Cc1nn(C(C)C(=O)NC2CCC(C)CC2)c(=O)c2nn(-c3ccccc3)c(C)c12 (stereo not drawn) |  | inactive: 5.76%
26 | COc1ccc(/C=C2\CCc3ccccc3C2=O)cc1O | inconclusive [activator, full curve, poor fit] | 
27 | COc1ccc(-c2cn3nc(SCC(=O)NC4CCCCC4)ccc3n2)cc1 | inconclusive [activator, partial curve, poor fit] | 
28 | COC(=O)c1sc(NC(=O)c2ccc(C)o2)nc1C | inconclusive [activator, partial curve, poor fit] | 
29 | CCCCOC(=O)c1ccc(NC(=O)c2cc(Cl)c(Cl)cc2C(=O)O)cc1 |  | inactive: 3.8%
30 | O=C(NC1CCCC1)c1cc(-c2ccc(Cl)c(Cl)c2)on1 | inconclusive [activator, partial curve, poor fit] | 
31 | Cc1ccccc1/C(N)=N/OC(=O)/C=C/c1ccccc1 | inconclusive [activator, partial curve, poor fit] | 
32 | Cc1ccn2c(Nc3ccccc3C)c(-c3ccccn3)nc2c1 | inconclusive [activator, partial curve, poor fit] | 
33 | CCSc1nnc(NC(=O)c2csc(C)c2)s1 | inconclusive [activator, single point] | 
34 | CCCCOC(=O)Nc1ccc(N(C)C)cc1 | inconclusive [activator, partial curve, poor fit] | 
35 | O=C(Nc1nccs1)C(Br)C(Br)c1ccccc1 (stereo not drawn) | inconclusive [activator, full curve, poor fit] | 
36 | COc1ccc(-n2c(CNC(=O)COc3ccc(Cl)cc3)n[nH]c2=S)cc1 |  | inactive: 1.45%
37 | COc1ccccc1/C=C1\SC(=S)N(CCC(=O)N2CCCCC2CCO)C1=O (stereo not drawn) | inconclusive [activator, partial curve, poor fit] | 
38 | O=S(=O)(NC1CCCC1)c1ccc(S(=O)(=O)N2CCCN(Cc3ccccc3)C2)cc1 | inconclusive [activator, single point] | 
39 | Cc1onc(C(=O)Nc2sc3c(c2C#N)CCCC3)c1[N+](=O)[O-] | inconclusive [activator, full curve, poor fit] | 
40 | O=C(/C=C/c1ccccc1Cl)c1ccc(O)cc1 | inconclusive [activator, partial curve, poor fit] | 
41 | O=[N+]([O-])c1cccc(NC(=S)NCCc2ccccc2)c1 | inconclusive [activator, full curve, poor fit] | 
42 | Cc1ccc(-c2nc3ccccc3s2)cc1NC(=S)NC(=O)c1cccc2ccccc12 | inconclusive [activator, partial curve, poor fit] | 
43 | O=C(O)CC(c1ccccc1)N1C(=O)c2cccc([N+](=O)[O-])c2C1=O (stereo not drawn) | inconclusive [activator, single point] | 

From PubChem BioAssay AID504706 (National Center for Advancing Translational Sciences (NCATS), 2011)
